Among all 150,000 compounds or so, about 540 (0.36%) showed an effect of 50% or more. The list shows a part of the results.
The compounds below were run on Plasmodium falciparum (assay: Primary screen in NF54 nanoGlo assay, in single point, at 2uM, 72h; a lower Z score goes with more inhibition). Conditions: timepoint 72 hour.
Format: functional, Erythrocyte
For Cc1cccc(O)c1NC(=O)C1=CCCCO1, the “% Inhibition” value was 0% and the Z score was 0.01. C[C@@](NC(=O)CCc1ccc(Cl)s1)(C(=O)O)C1CC1 was tested, and the “% Inhibition” value was 2% and the Z score was -0.25. With NS(=O)(=O)c1ccc(NC2CCN(Cc3ccccc3)CC2)c(C(=O)O)c1 the “% Inhibition” value was -8% and the Z score was 0.98. With CCNC(=O)Nc1c[nH]nc1[C@H]1CCCN(c2ccnc(C3CC3)n2)C1 the “% Inhibition” value was -6% and the Z score was 0.72. CCNc1ccnc(N2CCC3(CCC(=O)N(CCc4cccnc4)C3)CC2)n1 was tested, and the “% Inhibition” value was -8% and the Z score was 1.26. For Cn1nc(-c2ccccc2Cl)cc1C(=O)NC1CCN(Cc2ccccc2)CC1, the “% Inhibition” value was -13% and the Z score was 1.85. For CC(C)CNC(=O)N1CC[C@H](OCc2ccccc2)C1, the “% Inhibition” value was -5% and the Z score was 0.81. With COc1ccccc1CN(C)c1cc(N)nc(C)n1 the “% Inhibition” value was -8% and the Z score was 0.8. For C[C@@H](CCC(=O)NCCCc1nnc2ccccn12)N1CCOCC1, the “% Inhibition” value was -6% and the Z score was 0.61. With O=C(NCc1ccc(-c2ccn[nH]2)cc1)Nc1cccc(Cn2cccnc2=O)c1 the “% Inhibition” value was -7% and the Z score was 1.23. In the case of Cc1cc(C)nc(-n2cc(C(=O)N3CCN[C@@H](C)C3)c(C(C)C)n2)n1, the “% Inhibition” value is reported as 0% and the Z score is reported as -0.06. CC1CCCCC1OCCN1CCOCC1 (stereo not drawn) was tested, and the “% Inhibition” value was -5% and the Z score was 0.48. With N#Cc1csc(CNc2ncccn2)c1 the “% Inhibition” value was 2% and the Z score was -0.22. In the case of N#CCC1(CNC(=O)N2CCc3ccccc3CC2)CC1, the “% Inhibition” value is reported as -1% and the Z score is reported as 0.19. With Cc1nc2ccccc2n1[C@H]1CCN(S(C)(=O)=O)C1 the “% Inhibition” value was -3% and the Z score was 0.57. CC(=O)Nc1ccc(S(=O)(=O)N2CCc3c(c(-c4nnc(-c5ccc(C)cc5)o4)nn3C)C2)cc1 was tested, and the “% Inhibition” value was -14% and the Z score was 1.58. With COc1nc(CNS(C)(=O)=O)nc(N2CCCC2)n1 the “% Inhibition” value was 7% and the Z score was -1.01. In the case of NCC[C@H]1CN(C(=O)Nc2ccc(Oc3ccccc3)c(Cl)c2)CCO1, the “% Inhibition” value is reported as 11% and the Z score is reported as -1.47. C=CCCS(=O)(=O)NC[C@H]1CCCN1CC was tested, and the “% Inhibition” value was -15% and the Z score was 2.14. For Cn1cc(C(=O)N[C@@H]2COC3(CCCC3)C2)c(=O)[nH]c1=O, the “% Inhibition” value was 10% and the Z score was -1.35. O=c1c2ccccc2ncn1C[C@H]1CC[C@H](C(=O)N2CCN(Cc3ccccc3)CC2)CC1 was tested, and the “% Inhibition” value was 1% and the Z score was -0.18. With CCCNC(=O)Cc1noc([C@@H]2CCCN2S(=O)(=O)c2ccccc2)n1 the “% Inhibition” value was 2% and the Z score was -0.22. For CC(C)CCC(=O)N1CCC[C@H](CN2CCN(c3ccccn3)CC2)C1, the “% Inhibition” value was -6% and the Z score was 0.81. For Cc1ccc(NC(=O)c2nc(C3CCC3)oc2C)cc1F, the “% Inhibition” value was 3% and the Z score was -0.43.

From ChEMBL document CHEMBL4888484, “Replenishing the malaria drug discovery pipeline: Screening and hit evaluation of the MMV Hit Generation Library 1 (HGL1) against asexual blood stage Plasmodium falciparum ,using a nano luciferase reporter read-out” (2022)
